The whole screen tested about 360,000 compounds, of which about 16,000 (4.4%) were called active. Inconclusive means that the source gave no clear call. Such entries were picked first, then a sample of the others. Calls follow the shape of the dose curve; as a rule, active = well fitted inhibition curve with a large enough effect; inconclusive = small, poorly fitted or top-dose-only effect; inactive = no such curve, though single readings can be large or run the other way. A potency beside an inconclusive call is a rough fit, not a confirmed value.
Molecular target: Bromodomain adjacent to zinc finger domain protein 2B (Homo sapiens) (UniProt Q9UIF8)
Chain of UniProt Q9UIF8 (Q9UIF8 whole entry, looked up, the tested form may be a part): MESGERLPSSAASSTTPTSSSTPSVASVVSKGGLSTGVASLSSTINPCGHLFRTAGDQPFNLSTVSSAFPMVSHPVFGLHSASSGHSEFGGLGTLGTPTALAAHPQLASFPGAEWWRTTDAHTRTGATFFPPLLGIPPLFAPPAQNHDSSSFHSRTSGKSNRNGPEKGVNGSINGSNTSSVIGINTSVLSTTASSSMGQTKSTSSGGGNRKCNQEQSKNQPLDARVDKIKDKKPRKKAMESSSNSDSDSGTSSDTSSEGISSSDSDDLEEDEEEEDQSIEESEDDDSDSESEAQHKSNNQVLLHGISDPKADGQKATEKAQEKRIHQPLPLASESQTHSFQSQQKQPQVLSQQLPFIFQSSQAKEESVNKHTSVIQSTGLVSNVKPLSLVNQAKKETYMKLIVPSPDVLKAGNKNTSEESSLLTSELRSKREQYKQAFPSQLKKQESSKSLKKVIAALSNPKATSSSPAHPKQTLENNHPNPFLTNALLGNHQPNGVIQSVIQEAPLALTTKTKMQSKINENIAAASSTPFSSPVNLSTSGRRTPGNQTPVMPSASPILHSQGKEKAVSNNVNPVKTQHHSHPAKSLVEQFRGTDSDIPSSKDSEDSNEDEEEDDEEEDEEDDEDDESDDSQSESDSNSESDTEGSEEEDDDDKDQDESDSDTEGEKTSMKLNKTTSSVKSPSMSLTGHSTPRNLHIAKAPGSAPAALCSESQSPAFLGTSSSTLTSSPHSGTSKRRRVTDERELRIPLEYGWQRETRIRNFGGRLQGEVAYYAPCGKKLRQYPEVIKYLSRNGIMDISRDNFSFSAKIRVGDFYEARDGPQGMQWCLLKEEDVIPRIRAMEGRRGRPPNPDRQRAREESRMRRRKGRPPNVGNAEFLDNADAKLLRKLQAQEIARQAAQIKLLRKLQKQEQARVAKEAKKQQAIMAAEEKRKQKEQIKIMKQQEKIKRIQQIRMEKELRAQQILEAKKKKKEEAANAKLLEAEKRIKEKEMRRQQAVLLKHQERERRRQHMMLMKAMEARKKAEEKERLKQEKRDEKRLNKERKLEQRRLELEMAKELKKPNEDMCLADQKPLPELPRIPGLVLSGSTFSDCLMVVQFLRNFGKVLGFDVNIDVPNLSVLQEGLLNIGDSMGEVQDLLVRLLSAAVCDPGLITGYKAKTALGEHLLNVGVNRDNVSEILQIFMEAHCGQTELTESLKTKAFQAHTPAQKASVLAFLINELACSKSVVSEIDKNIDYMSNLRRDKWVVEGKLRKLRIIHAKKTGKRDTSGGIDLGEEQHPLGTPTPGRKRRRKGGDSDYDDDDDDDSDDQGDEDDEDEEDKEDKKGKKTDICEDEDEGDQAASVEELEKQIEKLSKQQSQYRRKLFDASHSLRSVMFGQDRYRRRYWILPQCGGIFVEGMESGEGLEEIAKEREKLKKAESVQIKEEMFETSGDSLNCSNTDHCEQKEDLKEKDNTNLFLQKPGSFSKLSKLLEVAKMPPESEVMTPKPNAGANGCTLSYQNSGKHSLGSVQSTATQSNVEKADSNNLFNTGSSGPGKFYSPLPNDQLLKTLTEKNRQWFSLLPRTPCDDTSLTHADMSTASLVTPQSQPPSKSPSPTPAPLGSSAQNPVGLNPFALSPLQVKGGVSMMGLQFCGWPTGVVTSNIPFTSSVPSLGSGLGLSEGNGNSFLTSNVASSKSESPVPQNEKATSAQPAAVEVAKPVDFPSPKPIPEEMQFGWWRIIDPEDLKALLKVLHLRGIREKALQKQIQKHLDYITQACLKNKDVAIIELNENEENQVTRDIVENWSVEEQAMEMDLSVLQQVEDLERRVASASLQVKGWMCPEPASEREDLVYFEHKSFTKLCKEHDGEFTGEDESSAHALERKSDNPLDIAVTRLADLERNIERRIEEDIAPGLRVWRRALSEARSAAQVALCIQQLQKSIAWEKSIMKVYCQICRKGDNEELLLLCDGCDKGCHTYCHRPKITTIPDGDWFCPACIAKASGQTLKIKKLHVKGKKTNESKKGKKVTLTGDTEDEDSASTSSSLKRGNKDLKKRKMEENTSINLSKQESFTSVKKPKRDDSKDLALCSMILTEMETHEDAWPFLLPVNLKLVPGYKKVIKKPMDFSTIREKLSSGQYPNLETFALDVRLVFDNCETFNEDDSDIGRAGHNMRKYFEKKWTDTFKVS
Experiment: qHTS Assay for Inhibitors of BAZ2B; also: nearly all actives have a fitted effect of over 60% in size
Details: AlphaScreen BAZ2B-H3K14Ac peptide displacement; activity change, negative = inhibition: at 114 µM (top of the series)
Procedure, shortened: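 Protein-peptide AlphaScreen: BAZ2B 50 nM, b-H3K14Ac 50 nM, 1x PBS pH 7.4 + 0.01% Tween-20. Preincubation 30 min RT; cpd 30 min RT (top 110 uM); beads 20 min RT, light-protected.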
% is scaled to controls: 0 for no effect and ±100 for the full control effect; potency is read from the fitted curve at half-maximal effect; tags tell the direction and shape of the fitted curve.

SMILES | Potency | activity change, negative = inhibition
Cc1ccnc(NC(=S)N2CCN(c3cccc(C(F)(F)F)c3)CC2)c1 | active: 20 µM | –
CSc1ccccc1C(=O)Nc1ccccc1C(=O)NC(C)C | inactive | –
CC(=O)c1ccccc1Oc1cc(NN2CCCCC2)c([N+](=O)[O-])cc1[N+](=O)[O-] | active: 31.6 µM | –
O=C(CN1C(=O)/C(=C/c2cccc(Br)c2)SC1=S)NC1=NCCS1 | inconclusive: 79.4 µM [inhibitor, single point] | –
CCOc1ccc(S(=O)(=O)N2CCN(c3ccccc3)CC2)c2cccnc12 | inconclusive: 56.2 µM [inhibitor, single point] | –
CC1CCCCC12NC(=O)N(CC(=O)OCc1cccc(F)c1)C2=O (centres undefined) | inactive | –
Cc1ccc(-n2cccc2C(=S)N=P(N(C)C)(N(C)C)N(C)C)cc1 | inconclusive: 79.4 µM [inhibitor, single point] | –
CCOC(=O)C1=C(C)Nc2nc3ccccc3n2C1c1ccccc1 (centres undefined) | inconclusive: 10 µM [inhibitor, full curve, poor fit] | –
CCN1/C(=C2\C(=O)N(C)C(=S)N2c2ccccc2)C=Cc2ccccc21 | active: 39.8 µM | –
Cc1cc(NC(=O)CSc2nnc(NC(=O)C3CC(=O)N(c4ccccc4)C3)s2)no1 (centres undefined) | inconclusive: 100 µM [inhibitor, single point] | –
COc1ccc(S(=O)Cc2ccc(C(=O)N3CCN(c4cccc(C)c4C)CC3)o2)cc1 (centres undefined) | inconclusive: 56.2 µM [inhibitor, partial curve] | –
Cc1c(Cl)cccc1NC(=O)Cn1c(=O)n(Cc2ccco2)c(=O)c2sc3ccccc3c21 | inactive | –
CCN1C(=O)/C(=C2\SC(=S)N(NC(=O)c3ccccc3O)C2=O)c2ccccc21 | active: 25.1 µM | –
CC(C)=N/N=C(\N)SCc1ccccc1 | active: 79.4 µM | –
C/C=C/c1ccc(OCc2cc(=O)n3cc(C)ccc3n2)c(OC)c1 | inconclusive: 70.8 µM [inhibitor, single point] | –
Cc1ccc(/C=C(\C#N)C(=O)NC(C)c2ccccc2)o1 (centres undefined) | inactive | –
Cc1[nH]c2ccccc2c1CC#N | inactive | –
CCOc1ccccc1CNc1ccc(N2CCOCC2)c(C(=O)O)c1 | inactive | –
Clc1ccc(CN2CCN(/N=C/c3ccco3)CC2)cc1 | inconclusive: 50.1 µM [inhibitor, partial curve] | –
CC(/C=C/c1ccco1)=N\NC(=O)c1cc(C)[nH]n1 | inactive | –
COc1ccc(C(=O)Nc2cc3c(cc2N2CCOCC2)n(C)c(=O)n3C)cc1OC | inconclusive: 0.631 µM [inhibitor, full curve, poor fit] | –
O=C(NC(=S)Nc1ccc2c(c1)OCCO2)c1ccccc1 | active: 44.7 µM | –
O=C(O)CCC(=O)NNC(=O)c1ccc(-c2ccccc2)cc1 | inactive | –
CC(C)COc1ccc(C(=O)N2C(=O)c3ccc(N)cc3C2=O)cc1 | inconclusive: 89.1 µM [inhibitor, single point] | –
Nc1nc(-c2ccccn2)nc(N)c1Cc1ccccc1F | active: 6.31 µM | –

SMILES | Potency | activity change, negative = inhibition
N#Cc1nc(Cc2ccccc2)oc1NCc1ccccc1 | inconclusive: 50.1 µM [inhibitor, partial curve] | –
COc1ccc(CN(C)CC2CCCN(CCc3ccccc3C)C2)cc1O (centres undefined) | inactive | –
COc1ccc(-c2oc3ccc(-c4cc(OC)c(OC)c(OC)c4)cc3c2-c2ccc(OC)nc2)cc1 | inconclusive: 79.4 µM [inhibitor, single point] | –
Cc1cccnc1NC(=O)c1ccc2c(c1)OCCO2 | inactive | –
COc1ccc2c(CNCc3ccco3)c(C(=O)O)n(Cc3ccc(F)cc3Cl)c2c1 | inconclusive: 50.1 µM [inhibitor, partial curve] | –
COc1ccc(C(=O)CC(=O)C(=O)Nc2cccc(C(C)=O)c2)cc1 | inactive | –
Cc1cc(C)n(CCO)c(=O)n1 | inconclusive: 89.1 µM [inhibitor, single point] | –
COC(=O)c1cc(N2CCN(C)CC2)nc2ccccc12 | inconclusive: 50.1 µM [inhibitor, partial curve] | –
COc1cccc(OCCNc2cc(N3CCOCC3)ccc2[N+](=O)[O-])c1 | inconclusive: 25.1 µM [inhibitor, full curve] | –
CC1CN(C(c2ccco2)c2sc3ncnn3c2O)CC(C)O1 (centres undefined) | inactive | –
COc1ccc(-c2oc3ncn(Cc4ccco4)c(=N)c3c2-c2ccc(OC)cc2)cc1 | active: 28.2 µM | –
CC(O)CNc1nc2c(c(=O)n(Cc3ccc(Cl)c(Cl)c3)c(=O)n2C)n1C (centres undefined) | inconclusive: 79.4 µM [inhibitor, single point] | –
CCCNC(=S)NCCN1CCCCC1 | inconclusive: 89.1 µM [inhibitor, single point] | –
Cc1ccc(Cl)cc1N1CCN(C2(c3ccccc3)C(=O)c3ccccc3C2=O)CC1 | inconclusive: 4.47 µM [inhibitor, full curve, poor fit] | –
Cc1cccc(CCN2CCC(C(=O)c3ccc(NS(C)(=O)=O)cc3)CC2)n1 | inconclusive: 89.1 µM [inhibitor, single point] | –
CC(C)CC1Nc2ncnc(N3CCN(c4ccccn4)CC3)c2N(Cc2ccc(Br)cc2)C1=O (centres undefined) | inactive | –
Nc1c(C=C2C=CC(=O)C=C2)c(=O)nc2sc(CC(=O)N3CCOCC3)nn12 | inconclusive: 25.1 µM [inhibitor, partial curve] | –
O=C(CCCC(=O)c1ccccc1)NCCc1ccccc1 | inactive | –
CC(=O)Nc1ccc(N=Nc2ccccc2)cc1 | inconclusive: 50.1 µM [inhibitor, partial curve] | –
Cc1ccc(S(=O)(=O)N2CCC(C(=O)Nc3nnc(-c4ccco4)s3)CC2)cc1 | inconclusive: 50.1 µM [inhibitor, partial curve] | –
O=C1c2ccccc2NC(c2ccc(O)cc2)N1Cc1ccco1 (centres undefined) | inactive | –
Cc1ccc(C(=O)Oc2ccc(C(=O)COC(=O)C3CC(=O)N(Cc4ccco4)C3)cc2)cc1 (centres undefined) | active: 50.1 µM | –
O=c1c2oc3ccccc3c2n(Cc2ccc(Cl)cc2)c(=O)n1Cc1ccc2c(c1)OCO2 | inactive | –
CC12CC3CC(C)(C1)CC(C(=O)NCc1cccnc1)(C3)C2 | inactive | –
Cc1ccccc1Nc1c([N+](=O)[O-])ccc2nonc12 | inconclusive: 3.98 µM [inhibitor, full curve] | –

SMILES | Potency | activity change, negative = inhibition
O=C(NCc1ccc2c(c1)OCO2)c1cc2ncc(Br)cn2n1 | inconclusive: 56.2 µM [inhibitor, partial curve, poor fit] | –
Cc1ccc2nc(NC(=O)[C@H](C)N3C(=O)C4CC=CCC4C3=O)sc2c1 (some centres undefined) | inconclusive: 44.7 µM [inhibitor, full curve, poor fit] | –
CCOC(=O)Cc1cnc(NC(=O)CSc2nc(C(C)C)cc(=O)[nH]2)s1 | inconclusive: 89.1 µM [inhibitor, single point] | –
CN1CCN(C(=O)c2c(NC(=O)c3ccco3)sc3c2CCC(C(C)(C)C)C3)CC1 (centres undefined) | inconclusive: 44.7 µM [inhibitor, partial curve] | –
CCOc1ccccc1NC(=O)c1cc(CC(C)C)oc1C | inactive | –
COc1cc(NC(=O)c2cccc(Cl)c2)c(OC)cc1NC(=O)CN1CCOCC1 | inconclusive: 89.1 µM [inhibitor, single point] | –
COc1ccc(Nc2ncc(C(=O)N3CCN(c4ccc(OC)cc4)CC3)c3ccccc23)cc1 | inactive | –
CN1CCN(CC#CC(C)(O)C2CC3C=CC2C3)CC1 (centres undefined) | – | inconclusive: -92.4% [inhibitor]
CCOC(=O)c1sc2nc(CSCC(=O)OCc3ccc(C(=O)OC)o3)[nH]c(=O)c2c1C | inconclusive: 89.1 µM [inhibitor, single point] | –
Cc1c(Cl)cnc(NC(=O)COC(=O)c2cc3c(s2)CCC(C)C3)c1Cl (centres undefined) | inactive | –
CCN(CC)c1ccc(/C=N/O)cc1 | inactive | –
O=c1cc2ncc(-c3[nH]ncc3[N+](=O)[O-])cn2[nH]1 | inconclusive: 1.12 µM [inhibitor, full curve, poor fit] | –
O=S(=O)(c1ccc(F)cc1)N1CCN(CCc2ccccc2)CC1 | inactive | –
Cc1ccc(C(=O)N2CCCC(Nc3ccc(F)cc3)C2)cc1C (centres undefined) | inconclusive: 56.2 µM [inhibitor, partial curve] | –
CCN(CC)P1(=O)OC(c2cc(OC)c(OC)c(OC)c2)=Nc2c1c(C)nn2-c1ccccc1 (centres undefined) | inconclusive: 79.4 µM [inhibitor, single point] | –
CCCc1ccc(-c2c(C)sc(N)c2C#N)cc1 | inconclusive: 89.1 µM [inhibitor, single point] | –
CC1CCCCN1C(=O)c1ccc2c(c1)N(Cc1ccc(Cl)cc1)C(=O)c1ccccc1S2=O (centres undefined) | inactive | –
Cc1nnc(N2CCN(c3ccc(Cl)cc3)CC2)c2c1nnn2Cc1ccc(F)cc1 | inactive | –
CCC1Nc2ncnc(N3CCN(c4ccccn4)CC3)c2N(Cc2ccc(Cl)cc2)C1=O (centres undefined) | active: 56.2 µM | –
C=CCn1c(SCC(=O)Nc2ccc3c(c2)OCCO3)nnc1-c1ccccn1 | inconclusive: 89.1 µM [inhibitor, single point] | –
Cc1cccc(N2CCN(C(=O)c3cc4c(=O)[nH]c5ccc(C)cc5c4s3)CC2C)c1 (centres undefined) | inconclusive: 89.1 µM [inhibitor, single point] | –
COc1ccc(NC(=S)NC(NC(=O)c2cccc(Cl)c2)C(Cl)(Cl)Cl)c([N+](=O)[O-])c1 (centres undefined) | inconclusive: 35.5 µM [inhibitor, full curve] | –
C[N+]1(CN2C(=O)C3C4C=CC(C4)C3C2=O)CCCCC1 (centres undefined) | inconclusive: 89.1 µM [inhibitor, single point] | –
CCCc1nc(SCC(=O)NNC(=O)c2ccc(OC)cc2)c2ccccc2n1 | inactive | –

— PubChem BioAssay AID504333 (National Center for Advancing Translational Sciences (NCATS), 2011)
